{"source": "PubChem BioAssay AID761", "about": "(NMMLSC, 2007)", "note": "The whole screen tested about 190,000 compounds, of which about 400 (0.21%) were called active. This list was built around the results that the source calls inconclusive (neither active nor inactive); the mix of calls is not that of the screen.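 The calls were made as follows: active = percent activity GTP binding at least 20 points away from the 100% baseline, either down as inhibitor or up as activator; inconclusive = compound flagged as likely green fluorescent from well-wide comparison; inactive = the rest.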"}
{"target": "Cell division control protein 42 homolog (Homo sapiens) (UniProt P60953)", "sequence (P60953 whole entry, looked up)": "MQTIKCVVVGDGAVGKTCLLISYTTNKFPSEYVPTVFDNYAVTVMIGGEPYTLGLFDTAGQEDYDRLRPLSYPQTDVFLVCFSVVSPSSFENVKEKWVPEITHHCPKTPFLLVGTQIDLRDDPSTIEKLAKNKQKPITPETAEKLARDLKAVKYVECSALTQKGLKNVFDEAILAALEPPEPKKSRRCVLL", "test": "wildtype Cdc42 fluorescent GTP binding changes, either direction – biochemical, multiplex bead flow cytometry, Bodipy-GTP, primary screen (AID 761);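 also: median bead fluorescence of bound Bodipy-FL-GTP at 100 nM; 0% = excess unlabeled GTP control and 100% = no compound control; below 100% means less GTP binding so inhibitor and above means activator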", "conditions": "GST-Cdc42 beads, at 10 µM, actives lie on both sides"}
{"smiles": "O=C(c1cc([N+](=O)[O-])ccc1Cl)N1CCN(c2ccccc2)CC1", "percent activity (GTP binding)": "inconclusive: 98%"}
{"smiles": "CCc1ccc(CNC(=O)CCc2nnc(CCc3ccc(OC)cc3)o2)nc1", "percent activity (GTP binding)": "inconclusive: 96%"}
{"smiles": "Cc1ccc(-c2csc(/C(C#N)=C/Nc3ccccc3SC(F)(F)F)n2)c(C)c1", "percent activity (GTP binding)": "inactive: 101%"}
{"smiles": "COc1ccc(C2=Nn3c(nnc3-c3ccco3)SC2)cc1OC", "percent activity (GTP binding)": "inconclusive: 60%"}
{"smiles": "Cc1ccc(NC(=S)NCc2ccc(S(N)(=O)=O)cc2)cc1Cl", "percent activity (GTP binding)": "inconclusive: 98%"}
{"smiles": "O=C(CSc1ccc2nnc(-c3ccncc3)n2n1)Nc1nccs1", "percent activity (GTP binding)": "active: 79%"}
{"smiles": "O=C(O)c1ccc(CNCc2ccc(F)cc2)cc1", "percent activity (GTP binding)": "active: 79%"}
{"smiles": "Cc1ccc2c(CC(=O)NC3CCCc4ccccc43)coc2c1", "note": "(centres undefined)", "percent activity (GTP binding)": "inconclusive: 103%"}
{"smiles": "CCOc1ccc(-c2nc[nH]c2[N+](=O)[O-])cc1", "percent activity (GTP binding)": "inactive: 92%"}
{"smiles": "O=c1[nH]c(/C(=N\\O)c2ccccc2)no1", "percent activity (GTP binding)": "inconclusive: 90%"}
{"smiles": "O=C(Nc1ccccc1)C1=C[C@H](c2coc3ccccc3c2=O)C[C@H](OCCCCO)O1", "percent activity (GTP binding)": "inactive: 97%"}
{"smiles": "Cn1c(O)c(N=NC(=O)c2ccccc2O)c2ccccc21", "percent activity (GTP binding)": "inactive: 93%"}
{"smiles": "CCOc1ccc2c(c1)sc(=NC(=O)C1CC1)n2C", "percent activity (GTP binding)": "inconclusive: 91%"}
{"smiles": "O=C(c1cccnc1)N1C2C=CC(C2)C1(C(F)(F)F)C(F)(F)F", "note": "(centres undefined)", "percent activity (GTP binding)": "inconclusive: 91%"}
{"smiles": "Cc1ccc(-c2csc3nc4c5ccccc5c(NCCCN5CCOCC5)nn4c(=O)c23)cc1", "percent activity (GTP binding)": "active: 57%"}
{"smiles": "CCn1c(COc2ccccc2)nnc1SCC(=O)c1cccc([N+](=O)[O-])c1", "percent activity (GTP binding)": "inconclusive: 107%"}
{"smiles": "COc1ccc(/C=C/c2nc3ccccc3n2C)cc1", "percent activity (GTP binding)": "inconclusive: 101%"}
{"smiles": "COc1cc(/C=C2/NC(=O)NC2=O)cc(Br)c1OCc1ccc(C(=O)O)cc1", "percent activity (GTP binding)": "inconclusive: 89%"}
{"smiles": "Cc1ccc(Nc2nc(N)nc(CSC(=S)N3CCOCC3)n2)cc1", "percent activity (GTP binding)": "inconclusive: 107%"}
{"smiles": "Nc1nc(-c2ccccc2)nn1S(=O)(=O)c1ccccc1", "percent activity (GTP binding)": "inconclusive: 94%"}
{"smiles": "O=C(O)C1CC(=O)N(c2ccc(F)cc2)C1", "note": "(centres undefined)", "percent activity (GTP binding)": "inconclusive: 93%"}
{"smiles": "Cc1ccc(-c2nc(N)n(S(C)(=O)=O)n2)cc1", "percent activity (GTP binding)": "inconclusive: 90%"}
{"smiles": "Cc1ccccc1NC(=O)c1sc(NC(=O)COc2ccccc2)c(C#N)c1C", "percent activity (GTP binding)": "inconclusive: 95%"}
{"smiles": "Cc1ccc(C)c(C(=O)COC(=O)c2ccccc2N2C(=O)C3C4CCC(C4)C3C2=O)c1", "note": "(centres undefined)", "percent activity (GTP binding)": "inconclusive: 103%"}
{"smiles": "CC1(C)Cc2c(sc(NC(=O)c3ccccc3Cl)c2C(=O)O)CO1", "percent activity (GTP binding)": "inactive: 92%"}
{"smiles": "CCC(=O)Nc1nnc(-c2ccco2)o1", "percent activity (GTP binding)": "inconclusive: 109%"}
{"smiles": "c1ccc(Nc2cc(-c3ccccc3)nc3ncnn23)cc1", "percent activity (GTP binding)": "inconclusive: 105%"}
{"smiles": "CC1CCN(CC(=O)N2CCCc3c2c(=O)oc2ccc(OCc4ccccc4)cc32)CC1", "percent activity (GTP binding)": "inconclusive: 91%"}
{"smiles": "COc1ccc(C(c2c(C)n(C)n(-c3ccccc3)c2=O)c2c(C)n(C)n(-c3ccccc3)c2=O)cc1O", "percent activity (GTP binding)": "inconclusive: 94%"}
{"smiles": "COc1ccc(NC(=O)CO/N=C2\\CCCc3nonc32)cc1", "percent activity (GTP binding)": "inconclusive: 110%"}
{"smiles": "CCCC(=O)N1CCN(c2ccc([N+](=O)[O-])c(NC(C)c3ccccc3)c2)CC1", "note": "(centres undefined)", "percent activity (GTP binding)": "inconclusive: 104%"}
{"smiles": "Cc1c(C(=O)N2CCc3ccccc3C2)oc2ccc(S(=O)(=O)N3CCCCCC3)cc12", "percent activity (GTP binding)": "inactive: 105%"}
{"smiles": "O=C1NC(=S)N/C1=C\\c1ccc(N2CCOCC2)cc1", "percent activity (GTP binding)": "inconclusive: 88%"}
{"smiles": "NC(=O)COc1ccc(C2c3c(oc4ccccc4c3=O)C(=O)N2CC2CCCO2)cc1", "note": "(centres undefined)", "percent activity (GTP binding)": "inconclusive: 87%"}
{"smiles": "COc1ccc(-c2csc(NC(=O)c3cccs3)c2C(=O)O)cc1OC", "percent activity (GTP binding)": "inactive: 92%"}
{"smiles": "Cc1ccc(O)c(NC2=C(Cl)C(=O)N(Cc3ccccc3)C2=O)c1", "percent activity (GTP binding)": "inconclusive: 88%"}
{"smiles": "Cc1cccc(N(CC(=O)N2CCN(c3ccccc3F)CC2)S(C)(=O)=O)c1", "percent activity (GTP binding)": "inconclusive: 91%"}
{"smiles": "Cc1ccccc1-c1ncc(CN2CCN(C3CCCCC3)C(CCO)C2)cn1", "note": "(centres undefined)", "percent activity (GTP binding)": "inactive: 102%"}
{"smiles": "Cc1nn2c(NCCCN3CCOCC3)c3c(nc2c1-c1ccccc1)CCC3", "percent activity (GTP binding)": "inconclusive: 96%"}
{"smiles": "CCN(CC(=O)NC1CCS(=O)(=O)C1)C(=O)/C=C/c1cccs1", "note": "(centres undefined)", "percent activity (GTP binding)": "inactive: 94%"}
{"smiles": "CCOC(=O)C1CCCN(C(c2ccccn2)c2c(C)[nH]c3ccccc23)C1", "note": "(centres undefined)", "percent activity (GTP binding)": "inactive: 99%"}
{"smiles": "O=C(CSc1ccc2nnc(-c3ccc(F)cc3)n2n1)N1CCCc2ccccc21", "percent activity (GTP binding)": "inactive: 95%"}
{"smiles": "COC(=O)CP(=O)(c1ccccc1)c1ccccc1", "percent activity (GTP binding)": "inactive: 97%"}
{"smiles": "O=S(=O)(c1cccs1)N1CCC(CO)(Cc2ccc(Cl)cc2)CC1", "percent activity (GTP binding)": "inactive: 98%"}
{"smiles": "Fc1cccc(NC(=S)NCCCN2CCOCC2)c1", "percent activity (GTP binding)": "inconclusive: 106%"}
{"smiles": "C=CCn1c(N)c(C(=O)Nc2ccc(C)c(C)c2)c2nc3ccccc3nc21", "percent activity (GTP binding)": "inconclusive: 79%"}
{"smiles": "COc1cc(C(=O)Nc2ccc3c(c2)OCCO3)ccc1-n1cnnn1", "percent activity (GTP binding)": "inconclusive: 102%"}
{"smiles": "CCOC(=O)N1CCN(c2c(-c3ccc(C(C)C)cc3)c(=O)c2=O)CC1", "percent activity (GTP binding)": "inconclusive: 105%"}
{"smiles": "COc1cc(/C=N/NC(=O)c2cc(-c3c(C)nn(-c4ccccc4)c3C)n[nH]2)ccc1O", "percent activity (GTP binding)": "inconclusive: 91%"}
{"smiles": "CCNC(=O)NC(=O)COC(=O)CCCc1nc2ccccc2s1", "percent activity (GTP binding)": "inactive: 97%"}
{"smiles": "Cc1ccc(-c2cc(-c3nnc(SCC(=O)NCC(C)C)n3N)c3ccccc3n2)cc1", "percent activity (GTP binding)": "inconclusive: 102%"}
{"smiles": "O=[N+]([O-])c1cc(S(=O)(=O)N2CCCC2)ccc1N/N=C1/CCCc2ccccc21", "percent activity (GTP binding)": "inconclusive: 106%"}
{"smiles": "Cc1nc2c(ccc3nc(NC(=O)c4ccc(S(=O)(=O)N(C)C)cc4)sc32)s1", "percent activity (GTP binding)": "inconclusive: 74%"}
{"smiles": "NC(CSCc1ccccc1Cl)C(=O)O", "note": "(centres undefined)", "percent activity (GTP binding)": "inconclusive: 89%"}
{"smiles": "CSc1ccc(CN2C(=O)NC3(CCCCC3)C2=O)cc1", "percent activity (GTP binding)": "inactive: 99%"}
{"smiles": "Cc1cc(C)c2sc(N(CCN(C)C)C(=O)c3cc(Cl)sc3Cl)nc2c1", "percent activity (GTP binding)": "inconclusive: 133%"}
{"smiles": "Cc1ccc(C(=O)/C=C/c2ccc(-c3ccccc3[N+](=O)[O-])o2)cc1", "percent activity (GTP binding)": "inconclusive: 93%"}
{"smiles": "N#CC(c1ccc(Cl)nn1)c1ccc(Cl)cc1Cl", "note": "(centres undefined)", "percent activity (GTP binding)": "inactive: 112%"}
{"smiles": "O=C(/C=C/c1ccccc1)Nc1ccc(Br)cn1", "percent activity (GTP binding)": "inactive: 93%"}
